Data taken from publication PMC4336329 (PLoS ONE, 2015).
The whole screen tested about 310,000 compounds, of which about 14,000 (4.5%) showed an effect of 50% or more. Effects have a minus sign here. The list shows a part of the results.

Molecular target: human ether-à-go-go-related gene (hERG) potassium channel (human, UniProt Q12809)
Assay: primary screen, population patch clamp on CHO cells stably expressing hERG
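Also: peak tail current of the secondary pulse compared with the same well before compound.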

Sequence of human ether-à-go-go-related gene (hERG) potassium channel (Q12809 whole entry, looked up): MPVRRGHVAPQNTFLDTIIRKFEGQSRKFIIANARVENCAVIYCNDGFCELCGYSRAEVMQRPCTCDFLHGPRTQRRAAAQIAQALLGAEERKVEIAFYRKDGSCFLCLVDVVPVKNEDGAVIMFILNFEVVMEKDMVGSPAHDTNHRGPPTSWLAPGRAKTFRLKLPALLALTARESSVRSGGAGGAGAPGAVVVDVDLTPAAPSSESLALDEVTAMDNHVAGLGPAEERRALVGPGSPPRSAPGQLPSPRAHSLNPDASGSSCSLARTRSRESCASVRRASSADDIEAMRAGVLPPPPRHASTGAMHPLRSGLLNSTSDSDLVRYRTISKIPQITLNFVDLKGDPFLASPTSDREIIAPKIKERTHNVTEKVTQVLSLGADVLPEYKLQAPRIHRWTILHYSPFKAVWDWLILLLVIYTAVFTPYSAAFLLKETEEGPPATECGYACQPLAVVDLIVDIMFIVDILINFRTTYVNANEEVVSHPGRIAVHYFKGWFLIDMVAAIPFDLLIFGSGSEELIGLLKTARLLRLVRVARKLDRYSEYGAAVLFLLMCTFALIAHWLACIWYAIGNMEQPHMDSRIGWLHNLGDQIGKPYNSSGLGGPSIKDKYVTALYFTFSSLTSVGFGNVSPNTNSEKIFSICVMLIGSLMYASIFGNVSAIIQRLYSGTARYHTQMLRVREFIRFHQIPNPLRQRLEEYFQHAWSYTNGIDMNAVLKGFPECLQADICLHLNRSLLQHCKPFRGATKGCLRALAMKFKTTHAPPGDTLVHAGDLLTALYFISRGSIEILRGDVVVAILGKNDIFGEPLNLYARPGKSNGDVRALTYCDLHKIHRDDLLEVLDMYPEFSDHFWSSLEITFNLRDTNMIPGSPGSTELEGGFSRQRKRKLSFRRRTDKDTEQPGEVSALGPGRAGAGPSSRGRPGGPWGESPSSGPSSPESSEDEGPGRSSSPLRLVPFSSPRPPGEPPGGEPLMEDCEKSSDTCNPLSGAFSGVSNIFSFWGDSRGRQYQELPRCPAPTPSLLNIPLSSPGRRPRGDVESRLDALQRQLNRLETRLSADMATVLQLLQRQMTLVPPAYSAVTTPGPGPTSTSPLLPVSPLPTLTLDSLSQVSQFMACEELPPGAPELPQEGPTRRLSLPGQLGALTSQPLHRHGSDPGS

SMILES | hERG current change (%, negative = inhibition) at 10uM [%]
CCC(C)NC(=O)Cn1c(=O)n(-c2ccccc2)c(=O)c2ccc(C(=O)NCc3ccco3)cc21 (stereo not shown) | -2.04
O=C(NC1CCCC1)C(c1cccnc1)N(C(=O)c1csnn1)c1ccccc1 (stereo not shown) | -13.8
O=C(CSc1ncn[nH]1)Nc1ccc(S(=O)(=O)Nc2ncccn2)cc1 | 57
COc1cccc(NC(=O)Nc2cc(Cl)ccc2C)c1 | 35.1
CN1CCN(C2CCN(Cc3ccc(O)c4ncccc34)CC2)CC1 | 5.17
Cc1ccc(NC(=O)[C@@H](CC(C)C)NC(=O)[C@@H]2Cc3ccccc3CN2)cc1 | -26.9
CN(C)C(=O)c1ccc(NC(=O)COC(=O)c2cc(S(=O)(=O)N(C)C)ccc2N2CCCC2)cc1 | -15.9
CCOC(=O)C(C)n1cnc2c(nnn2Cc2ccc(Cl)cc2)c1=O (stereo not shown) | -23.4
CCOc1ccc(/C(O)=C2/C(=O)C(=O)N(CCCn3ccnc3)C2c2cccs2)cc1Cl (stereo not shown) | 5.43
CCOC(=O)C1CCN(C(=O)c2ccc(S(=O)(=O)Nc3ccccc3OC)cc2)CC1 | -35.8
COc1ccc(C(=O)/C=C/c2cn(CC(O)CN3CCOCC3)c3ccccc23)cc1 (stereo not shown) | 3.55
CCOC(=O)c1c2n(c3ccc(O)cc13)CCCCC2 | 8.86
COc1cccc(NC(=O)CN(Cc2ccccc2)S(C)(=O)=O)c1 | -0.578
COC(=O)c1ccc(CSc2nnc(CNC(=O)c3ccc(OC)cc3)o2)o1 | 2.63
COc1ccc(CN(C(=O)c2cccs2)c2nccs2)cc1OC | -10.9
Cc1ccc(OCC(=O)N/N=C\c2cn(Cc3ccccc3)c3ccccc23)cc1C | 5.36
COc1ccc([C@H]2CC(=O)C=C(/C=C/c3ccc(C(F)(F)F)cc3)C2)cc1 | -62.9
CCC(C)c1ccccc1N1CC(C(=O)Nc2cc(S(=O)(=O)N3CCOCC3)ccc2OC)CC1=O (stereo not shown) | -4.27
CCCOC(=O)c1ccc(NC(=O)c2cccc(S(=O)(=O)N3CCN(C(C)=O)CC3)c2)cc1 | -20.8
COCCN1CCCC(CNCc2cn(C)nc2-c2ccc(Oc3ccccc3)cc2)C1 (stereo not shown) | -33.2
CCOC(=O)CSc1nnc(CSc2nc3ccccc3c(=O)[nH]2)n1-c1ccccc1 | -2.87
Cc1cccc(CNS(=O)(=O)c2ccc(-c3ccc(=O)[nH]n3)s2)c1 | -11.7
